# Laboratory results taken from PubChem BioAssay AID485294 (National Center for Advancing Translational Sciences (NCATS), 2010).
# Among all 370,000 compounds or so, about 150 (0.041%) were called active. Inconclusive means that the source gave no clear call. Such entries were picked first, then a sample of the others. Calls come from the whole dose curve; as a rule, active = well fitted inhibition curve with a large enough effect; inconclusive = small, poorly fitted or top-dose-only effect; inactive = flat fitted curve, though single readings scatter. No potency is given beside an inconclusive call; the fits are too rough.
# Target: Beta-lactamase (Escherichia coli (strain K12)) (UniProt P00811)
# UniProt P00811, sequence (P00811 whole entry, looked up): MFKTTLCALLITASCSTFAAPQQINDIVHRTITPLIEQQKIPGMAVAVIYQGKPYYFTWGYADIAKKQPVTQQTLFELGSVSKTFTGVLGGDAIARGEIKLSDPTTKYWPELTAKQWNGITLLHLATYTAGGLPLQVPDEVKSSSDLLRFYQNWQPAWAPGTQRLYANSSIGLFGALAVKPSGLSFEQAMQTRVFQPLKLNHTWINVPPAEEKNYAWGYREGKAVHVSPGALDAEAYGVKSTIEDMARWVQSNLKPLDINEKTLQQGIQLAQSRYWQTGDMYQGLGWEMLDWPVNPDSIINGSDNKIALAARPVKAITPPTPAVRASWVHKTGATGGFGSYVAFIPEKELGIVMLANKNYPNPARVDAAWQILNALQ
# Assay: qHTS Inhibitors of AmpC Beta-Lactamase (assay with detergent); note: nearly all actives have a fitted effect of over 25% in size
# Conditions: AmpC hydrolysis of nitrocefin, absorbance 480 nm, 0.01% Triton; series mostly up to 114 µM
# Method in brief: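 20 mM phosphate pH 7.0 + 0.01% (detergent screen) or 0.0001% Triton X-100; 5.3 nM AmpC reagent; cpd preinc 15 min RT; nitrocefin (800 uM stock) to start; A480 q20 s × 4 min; Activity was normalised to no-enzyme and no-compound control wells.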
# Potency is the fitted concentration of half-maximal effect; tags give direction and shape of the fitted curve.
row,Structure (SMILES),Potency
1,Cc1c(CNC2CCC(C)CC2)c(C(=O)O)c(C)n1Cc1ccccc1 (stereo unspecified),"inconclusive [inhibitor, full curve, poor fit]"
2,O=C(c1cc(C2CC2)nn1-c1ccccc1)N1CCN(Cc2ccccc2F)CC1,"inconclusive [inhibitor, single point]"
3,CC(NC(=S)NCCc1ccccc1)C(c1cccs1)N1CCN(C)CC1 (stereo unspecified),"inconclusive [inhibitor, partial curve, poor fit]"
4,C=C(C)Cn1c(N)cc(=O)nc1SCC(=O)Nc1cccc(C(F)(F)F)c1,"inconclusive [inhibitor, full curve]"
5,CCCS(=O)(=O)N1CC(=O)N(c2ccc(C)cc2C)C(C)(C(=O)NC2CCCCCC2)C1 (stereo unspecified),inactive
6,CC1CCN(C(=O)CN2C(=O)C(=O)c3ccccc32)CC1,"inconclusive [inhibitor, full curve, poor fit]"
7,O=S(=O)(NCCOCC(F)(F)F)c1ccc2oc3ccccc3c2c1,"inconclusive [inhibitor, full curve, poor fit]"
8,Cc1ccc(S(=O)(=O)C(CNC(=O)C(=O)NCCc2ccc(Cl)cc2)c2cccs2)cc1 (stereo unspecified),inactive
9,CCCS(=O)(=O)c1nnnn1-c1cccc(OC)c1,"inconclusive [inhibitor, full curve]"
10,O=C(Nc1nc2ccccc2s1)C1CC(=O)N(c2ccc(Cl)cc2)C1 (stereo unspecified),"inconclusive [inhibitor, full curve, poor fit]"
11,Cc1ccc(CCNC(=O)c2c[nH]c3ccc(S(=O)(=O)Nc4cccc(C(F)(F)F)c4)cc3c2=O)cc1,inactive
12,Cn1cnnc1Sc1cc(N2CCN(S(=O)(=O)c3ccc(Cl)c(Cl)c3)CC2)ccc1[N+](=O)[O-],inactive
13,CCCn1c(CCC(=O)Nc2ccc(C)c(Cl)c2)nc2cccnc21,inactive
14,Cc1ncc(CO)c(/C=N/NC(=O)c2cc(O)c(O)c(O)c2)c1O,inactive
15,CC(=O)N1CCN(C(=O)C(Cc2ccccc2)NC(=O)c2ccccc2)CC1 (stereo unspecified),"inconclusive [inhibitor, partial curve, poor fit]"
16,COc1cccc(NC(=O)CC(c2ccc(OC(C)C)cc2)c2ccccc2OC)c1 (stereo unspecified),"inconclusive [inhibitor, full curve]"
17,CC(C)[C@@H]1NC(=O)c2cc([N+](=O)[O-])cc(I)c2NCC[C@@H](C(N)=O)NC(=O)[C@H](CO)NC1=O,"inconclusive [inhibitor, full curve, poor fit]"
18,O=C(CSc1ncnc2c1cnn2CCc1ccccc1)Nc1ccc(F)cc1,"inconclusive [inhibitor, partial curve]"
19,COc1cc(/C=C2\SC(N3CCc4ccccc4C3)=NC2=O)cc(OC)c1OC,"inconclusive [inhibitor, full curve, poor fit]"
20,CCOc1ccc(/C=N/NC(=S)NC2CC3CC2C2C=CCC32)cc1 (stereo unspecified),"inconclusive [inhibitor, single point]"
21,NS(=O)(=O)c1ccc(CCNc2nc(CN3CCCCC3)nc3sc4c(c23)CCC4)cc1,inactive
22,COCc1cc(CNC(=O)C2CCC(=O)N(Cc3ccccc3OC)C2)[nH]n1 (stereo unspecified),inactive

row,Structure (SMILES),Potency
1,CN(C)CCC#CC(O)(c1ccccc1)c1ccccc1,"inconclusive [inhibitor, partial curve, poor fit]"
2,CCCOc1ccc(-c2cnc(SCC(N)=O)nc2N)cc1,inactive
3,O=C(NCc1ccccc1Cl)C1CCN(C(=O)c2sccc2-n2cccc2)CC1,"inconclusive [inhibitor, full curve, poor fit]"
4,CSc1ccccc1C(=O)Nc1ccc(C)cc1C,"inconclusive [inhibitor, single point]"
5,CCCCN(C(=O)c1ccc2c(c1)OCO2)C1CCS(=O)(=O)C1 (stereo unspecified),"inconclusive [inhibitor, partial curve, poor fit]"
6,O=C(COc1ccc(S(=O)(=O)N2CCCCC2)cc1)N1CCN(Cc2ccccc2)CC1,inactive
7,NNc1nc2c(-c3cccc(C(F)(F)F)c3)nnn2c2ccccc12,inactive
8,Cc1cc(=O)[nH]c(SCc2nnnn2-c2ccc(Cl)cc2)n1,"inconclusive [inhibitor, partial curve]"
9,CC[C@@H]1C=C(C)C[C@H](C)C[C@H](OC)[C@H]2O[C@@](O)(C(=O)C(=O)N3CCCC[C@H]3C(=O)O[C@H](/C(C)=C/[C@@H]3CC[C@@H](O)[C@H](OC)C3)[C@H](C)[C@@H](O)CC1=O)[C@H](C)C[C@@H]2OC,"inconclusive [inhibitor, full curve, poor fit]"
10,C=CCn1c(COc2ccc(F)cc2)nnc1SCC(=O)NC(=O)NCc1ccco1,"inconclusive [inhibitor, partial curve, poor fit]"
11,COc1ccc2c(c1)O[C@H](c1ccc3c(c1)OCO3)[C@@H](O)C2=O,inactive
12,CCc1ccc(N2CSC3=C(C#N)C(c4cccs4)CC(=O)N3C2)cc1 (stereo unspecified),"inconclusive [inhibitor, single point]"
13,Cc1ccc2c(c1)-c1nc3ccccc3cc1C2=NC1CCCCC1,inactive
14,O=[N+]([O-])O[C@H]1CO[C@H]2[C@@H]1OC[C@H]2O[N+](=O)[O-],"inconclusive [inhibitor, full curve, poor fit]"
15,COc1cc(OC)c(N(C)S(=O)(=O)c2cccc(C(=O)Nc3nnc(C4CC4)s3)c2)cc1Cl,inactive
16,COc1ccc(NC(=O)CN(C)C(=O)C2CSC3(C)CCC(=O)N23)cc1 (stereo unspecified),"inconclusive [inhibitor, single point]"
17,CN(Cc1ccccc1)S(=O)(=O)c1ccc(N2CCCC2=O)cc1,"inconclusive [inhibitor, full curve, poor fit]"
18,CNC(=O)C(=O)NCC1OCCCN1S(=O)(=O)c1cccs1 (stereo unspecified),"inconclusive [inhibitor, full curve, poor fit]"
19,COc1ccc(NC(=O)N2CCCC(c3ccccc3)C2)cc1 (stereo unspecified),inactive
20,COc1ccc(CNC(=O)C2CCCN(S(=O)(=O)c3cnc[nH]3)C2)cc1 (stereo unspecified),"inconclusive [inhibitor, full curve, poor fit]"
21,O=C(NCCCN1CCCC1=O)c1ccc2c(c1)NC(=O)C(N1CCOCC1)S2 (stereo unspecified),inactive
22,COCC(C)n1c(C)cc(C(=O)CSc2nc3ccccc3c(=O)[nH]2)c1C (stereo unspecified),"inconclusive [inhibitor, partial curve, poor fit]"

row,Structure (SMILES),Potency
1,COc1ccc(C(=O)N/N=C/c2ccc(N3CCOCC3)o2)cc1OC,"inconclusive [inhibitor, single point]"
2,O=C(Cn1c(NCCCO)nc2ccccc21)c1ccc(Cl)cc1Cl,inactive
3,Brc1cc2c(cc1/C=N/Nc1nc(N3CCOCC3)nc(N3CCOCC3)n1)OCO2,"inconclusive [inhibitor, full curve]"
4,Cc1onc(-c2ccccc2)c1C(=O)N1CCCSC1=Nc1ccccc1,inactive
5,CC1(C)CC(=O)C(C(c2ccncc2)C2C(=O)CC(C)(C)CC2=O)C(=O)C1,"inconclusive [inhibitor, partial curve, poor fit]"
6,CCOC(=O)c1cn(Cc2ccc(C)cc2)nn1,inactive
7,CCN(CC)S(=O)(=O)c1cccc(C(=O)N/N=C/c2ccc([N+](=O)[O-])o2)c1,inactive
8,CS(=O)(=O)N1CCN(c2ccc(C(=O)NC3C4CC5CC(C4)CC3C5)cc2[N+](=O)[O-])CC1 (stereo unspecified),"inconclusive [inhibitor, full curve]"
9,O=C1NC[C@H](Cc2ccccc2)N(CCc2cccc(F)c2)C1=O,inactive
10,COc1ccccc1NC(=O)CCN1CCN(c2ccc(Cl)cc2)CC1,"inconclusive [inhibitor, full curve, poor fit]"
11,CCCCCCn1nc(C(=O)OCC(=O)c2c(N)n(C)c(=O)n(C)c2=O)c2ccccc2c1=O,inactive
12,Cc1cc(SCc2ccc(Cl)cc2Cl)nc(=O)[nH]1,"inconclusive [inhibitor, full curve, poor fit]"
13,Cc1cccc(C)c1NC(=O)CNC(=O)c1cncc(Br)c1,"inconclusive [inhibitor, full curve, poor fit]"
14,O=C(O)COc1ccc(S(=O)(=O)NCCc2ccccc2)cc1,"inconclusive [inhibitor, full curve, poor fit]"
15,CC(=O)Oc1cccc(N2C(=O)C3CC=C(Cl)CC3C2=O)c1 (stereo unspecified),"inconclusive [inhibitor, partial curve, poor fit]"
16,O=C(COC(=O)CSCC(=O)N1CCCCC1)NCc1ccc(F)cc1,"inconclusive [inhibitor, partial curve, poor fit]"
17,Cc1noc(C)c1COc1ccc(C(=O)N2CCCC(C(N)=O)C2)cc1 (stereo unspecified),"inconclusive [inhibitor, partial curve]"
18,CNc1nc2ccccc2n1CC(=O)c1ccccc1,inactive
19,Cn1cc(Br)c(C(=O)Nc2sc3c(c2C(N)=O)CCCC3)n1,"inconclusive [inhibitor, single point]"
20,COc1ccc(-n2c(N)c(C(=O)NCC3CCCO3)c3nc4ccccc4nc32)c(OC)c1 (stereo unspecified),"inconclusive [inhibitor, single point]"
21,CN(C)CC(C)(C)CNS(=O)(=O)c1cccc2nsnc12,"inconclusive [inhibitor, partial curve, poor fit]"
22,O=S(=O)(NCCNS(=O)(=O)c1cccs1)c1cccs1,inactive
